B1: PhoQ; a variant is named by its letters at X, in order, P23837 (parent)
chain: MKKLLRLFFPLSLRVRFLLATAAVVLVLSLAYGMVALIGYSVSFDKTTFRLLRGESNLFYTLAKWENNKLHVELPENIDKQSPTMTLIYDENGQLLWAQRDVPWLMKMIQPDWLKSNGFHEIEADVNDTSLLLSGDHSIQQQLQEVREDDDDAEMTHSVAVNVYPATSRMPKLTIVVVDTIPVELKSSYMVWSWFIYVLSANLLLVIPLLWVAAWWSLRPIEALAKEVRELEEHNRELLNPATTRELTSLVRNLNRLLKSERERYDKYRTTLTDLTHSLKTPLXXLQXXLRSLRSEKMSVSDAEPVMLEQISRISQQIGYYLHRASMRGGTLLSRELHPVAPLLDNLTSALNKVYQRKGVNISLDISPEISFVGEQNDFVEVMGNVLDNACKYCLEFVEISARQTDEHLYIVVEDDGPGIPLSKREVIFDRGQRVDTLRPGQGVGLAVAREITEQYEGKIVAGESMLGGARMEVIFGRQHSAPKDE

The other results are listed elsewhere or left out. Some results are limits rather than exact numbers.

This test covers variants of B1. Description: enrichment ratio after two sorts for PhoP signalling (ratio (wild type AVST 3.29)); higher = more functional. To be noted: with PhoP (E. coli).
For YCNY, the enrichment ratio was at most 0.25.

Take TRNK: the enrichment ratio is at most 0.25.

Turning to DTIA, the enrichment ratio is at most 0.25.

Consider YHRH, for which the enrichment ratio is at most 0.25.

As for TKWA, the enrichment ratio is at most 0.25.

With GTKF, the enrichment ratio was at most 0.25.

Turning to PYVT, the enrichment ratio was at most 0.25.

FITQ: the enrichment ratio is at most 0.25.

For the variant VQSF, the enrichment ratio is at most 0.25.

Take SWFQ: the enrichment ratio was at most 0.25.

EKCP: the enrichment ratio is at most 0.25.

For the variant IWPV, the enrichment ratio is at most 0.25.

Take VNRR: the enrichment ratio is at most 0.25.

For YHPM, the enrichment ratio is at most 0.25.

MVPN: the enrichment ratio was at most 0.25.

For the variant WNEL, the enrichment ratio is at most 0.25.

For QSDM, the enrichment ratio turned out to be 13.7.

Regarding SMIS, the enrichment ratio is at most 0.25.

On to PRQA, for which the enrichment ratio was at most 0.25.

MMMN: the enrichment ratio was at most 0.25.

Regarding HCGH, the enrichment ratio is at most 0.25.

For LLKC, the enrichment ratio is at most 0.25.

As for FFMS, the enrichment ratio is at most 0.25.

As to DFCE, the enrichment ratio was at most 0.25.

With WARC, the enrichment ratio was at most 0.25.

For VLGR, the enrichment ratio was at most 0.25.

With SMSN, the enrichment ratio is 5.91.

On to LIQS, for which the enrichment ratio was at most 0.25.

MDLM: the enrichment ratio was at most 0.25.

As for KCAN, the enrichment ratio is at most 0.25.

Take YYCT: the enrichment ratio was at most 0.25.

In the case of TDMP, the enrichment ratio is at most 0.25.

Take VKFD: the enrichment ratio is at most 0.25.

In the case of PDYQ, the enrichment ratio is at most 0.25.

Take YTNW: the enrichment ratio is at most 0.25.

Take NTWV: the enrichment ratio was at most 0.25.

With PHWT, the enrichment ratio is at most 0.25.

In the case of PWNE, the enrichment ratio was at most 0.25.

As to FHGR, the enrichment ratio was at most 0.25.

On to ARNG, for which the enrichment ratio is at most 0.25.

For the variant MQHS, the enrichment ratio is at most 0.25.

Regarding EFEQ, the enrichment ratio is at most 0.25.

On to TQNL, for which the enrichment ratio is 6.43.

For NPQQ, the enrichment ratio was at most 0.25.

Regarding SLQN, the enrichment ratio is at most 0.25.

With KNIY, the enrichment ratio was at most 0.25.

For the variant PNDS, the enrichment ratio is at most 0.25.

Regarding KNVE, the enrichment ratio is at most 0.25.

TQAR: the enrichment ratio was at most 0.25.

Turning to YGTS, the enrichment ratio was at most 0.25.

On to ERFH, for which the enrichment ratio worked out at 2.67.

With TMCS, the enrichment ratio is 16.8.

As to VCPV, the enrichment ratio is at most 0.25.

As to FDVW, the enrichment ratio is at most 0.25.

Regarding WSYP, the enrichment ratio was at most 0.25.

In the case of LAYH, the enrichment ratio was at most 0.25.

Take TENG: the enrichment ratio amounted to 7.13.

As for NSYK, the enrichment ratio was at most 0.25.

With VFML, the enrichment ratio was at most 0.25.

For ATAR, the enrichment ratio was at most 0.25.

As to ERCI, the enrichment ratio is at most 0.25.

For the variant DGVF, the enrichment ratio is at most 0.25.

With VVIR, the enrichment ratio was at most 0.25.

On to DHSG, for which the enrichment ratio is at most 0.25.

For the variant PQFF, the enrichment ratio is at most 0.25.

Regarding LSSQ, the enrichment ratio was at most 0.25.

For QTCD, the enrichment ratio was at most 0.25.

Take DSRT: the enrichment ratio was at most 0.25.

With IHHF, the enrichment ratio was at most 0.25.

On to QIDL, for which the enrichment ratio was at most 0.25.

WSKR: the enrichment ratio was at most 0.25.

As to EYMC, the enrichment ratio is at most 0.25.

In the case of DVNM, the enrichment ratio is at most 0.25.

As to RAET, the enrichment ratio was at most 0.25.

Take YCII: the enrichment ratio is at most 0.25.

For PRLD, the enrichment ratio was at most 0.25.

As to PDLP, the enrichment ratio was found to be 0.351.

Turning to AFEF, the enrichment ratio was at most 0.25.

Take GLLH: the enrichment ratio was at most 0.25.

Take VPTI: the enrichment ratio was at most 0.25.

For ALCC, the enrichment ratio turned out to be 5.38.

In the case of IFKA, the enrichment ratio was at most 0.25.

In the case of TNAN, the enrichment ratio was determined as 2.19.

For LWMV, the enrichment ratio was at most 0.25.

On to ILSH, for which the enrichment ratio is at most 0.25.

For the variant MKVN, the enrichment ratio was at most 0.25.

Turning to TIMM, the enrichment ratio worked out at 2.21.

As to YWNV, the enrichment ratio was at most 0.25.

Consider FRPE, for which the enrichment ratio was at most 0.25.

On to NSKQ, for which the enrichment ratio is at most 0.25.

As for AVFE, the enrichment ratio is at most 0.25.

For RYVG, the enrichment ratio was at most 0.25.

With NGHH, the enrichment ratio is at most 0.25.

For the variant MWAY, the enrichment ratio is at most 0.25.

YWVQ: the enrichment ratio is at most 0.25.

For NAPD, the enrichment ratio is at most 0.25.

Take MFRI: the enrichment ratio was at most 0.25.

For ILVI, the enrichment ratio was at most 0.25.

DTFL: the enrichment ratio was at most 0.25.

Regarding QFQS, the enrichment ratio is at most 0.25.

For PVQV, the enrichment ratio is at most 0.25.

With QSSV, the enrichment ratio stood at 10.3.

KYIQ: the enrichment ratio was at most 0.25.

Consider HEFH, for which the enrichment ratio is at most 0.25.

With GTCC, the enrichment ratio is at most 0.25.

In the case of NNCP, the enrichment ratio was at most 0.25.

Take IEDH: the enrichment ratio was at most 0.25.

Take YYFA: the enrichment ratio is at most 0.25.

For the variant WWST, the enrichment ratio is at most 0.25.

For the variant SQDK, the enrichment ratio was at most 0.25.

With RSCQ, the enrichment ratio was at most 0.25.

With ECLA, the enrichment ratio is at most 0.25.

Consider NPKP, for which the enrichment ratio is at most 0.25.

Take NKIR: the enrichment ratio is at most 0.25.

In the case of SMKL, the enrichment ratio is at most 0.25.

Turning to LDNS, the enrichment ratio is at most 0.25.

On to RVTP, for which the enrichment ratio is at most 0.25.

For TMQD, the enrichment ratio was 10.9.

In the case of NWLH, the enrichment ratio was at most 0.25.

On to QEIW, for which the enrichment ratio is at most 0.25.

As for KDVN, the enrichment ratio was at most 0.25.

As to HMYD, the enrichment ratio was at most 0.25.

As to VHTM, the enrichment ratio was at most 0.25.

As for SNSQ, the enrichment ratio came to 5.57.

For the variant AEKA, the enrichment ratio is at most 0.25.

As to IHMF, the enrichment ratio was at most 0.25.

With SLCN, the enrichment ratio stood at 11.5.

As for FKDV, the enrichment ratio is at most 0.25.

Take NFPY: the enrichment ratio was at most 0.25.

Turning to LGWK, the enrichment ratio was at most 0.25.

Turning to SAYL, the enrichment ratio is 1.93.

With AIMY, the enrichment ratio came out at 6.62.

As to LKLI, the enrichment ratio was at most 0.25.

Regarding FDYF, the enrichment ratio is at most 0.25.

Turning to DVIK, the enrichment ratio is at most 0.25.

For the variant WWHM, the enrichment ratio is at most 0.25.

For ITWI, the enrichment ratio is at most 0.25.

Consider GPYQ, for which the enrichment ratio was at most 0.25.

As to GHCN, the enrichment ratio was at most 0.25.

In the case of RIHQ, the enrichment ratio was at most 0.25.

Regarding DWDY, the enrichment ratio is at most 0.25.

In the case of KTAM, the enrichment ratio was at most 0.25.

In the case of MAPK, the enrichment ratio is at most 0.25.

Take TDLQ: the enrichment ratio worked out at 18.8.

Consider YIWT, for which the enrichment ratio is at most 0.25.

Consider GVTG, for which the enrichment ratio amounted to 0.328.

As for RPHT, the enrichment ratio was at most 0.25.

As to TAIT, the enrichment ratio is at most 0.25.

With FCVK, the enrichment ratio was at most 0.25.

For GWPK, the enrichment ratio is at most 0.25.

For TVMH, the enrichment ratio amounted to 5.

For the variant WVRV, the enrichment ratio is at most 0.25.

With YAYT, the enrichment ratio was at most 0.25.

For the variant FLIL, the enrichment ratio was at most 0.25.

Consider QYCK, for which the enrichment ratio was at most 0.25.

As to IQNG, the enrichment ratio is at most 0.25.

For TCTY, the enrichment ratio stood at 14.7.

For the variant TGNL, the enrichment ratio came out at 6.33.

For the variant DKYK, the enrichment ratio was at most 0.25.

In the case of DHGP, the enrichment ratio was at most 0.25.

On to QQVA, for which the enrichment ratio is at most 0.25.

With VYLY, the enrichment ratio was at most 0.25.

On to FRPC, for which the enrichment ratio was at most 0.25.

GPTM: the enrichment ratio was at most 0.25.

For the variant EDCL, the enrichment ratio was at most 0.25.

Regarding HWYT, the enrichment ratio is at most 0.25.

As to LLCM, the enrichment ratio is at most 0.25.

IMPT: the enrichment ratio was at most 0.25.

Turning to WFQG, the enrichment ratio was at most 0.25.

As to RMCH, the enrichment ratio is at most 0.25.

Regarding MEWT, the enrichment ratio worked out at 34.7.

Regarding DLVL, the enrichment ratio is at most 0.25.

Consider FQSD, for which the enrichment ratio was at most 0.25.

GCVS: the enrichment ratio was at most 0.25.

IFVV: the enrichment ratio was at most 0.25.

As to HDNM, the enrichment ratio is at most 0.25.

TDSE: the enrichment ratio is at most 0.25.

As to RSSY, the enrichment ratio was at most 0.25.

On to TQFG, for which the enrichment ratio is 9.31.

With GPVY, the enrichment ratio was at most 0.25.

As to HMGY, the enrichment ratio was at most 0.25.

Consider WSNF, for which the enrichment ratio was at most 0.25.

RRHC: the enrichment ratio was at most 0.25.

Consider FQVG, for which the enrichment ratio was at most 0.25.

Turning to GLGN, the enrichment ratio was at most 0.25.

As to MSQP, the enrichment ratio is at most 0.25.

Turning to HMVI, the enrichment ratio is at most 0.25.

Regarding TLWF, the enrichment ratio was at most 0.25.

Regarding TMMV, the enrichment ratio turned out to be 4.75.

Take PRLT: the enrichment ratio was at most 0.25.

With YYAR, the enrichment ratio is at most 0.25.

For the variant DARF, the enrichment ratio is at most 0.25.

With YKKN, the enrichment ratio was at most 0.25.

Turning to SSAP, the enrichment ratio was at most 0.25.

For KINS, the enrichment ratio is at most 0.25.

The values are drawn from a collection of fitness landscapes (doi:10.1126/science.1257360).
